Molecules are shown by their SMILES. Screen size: about 52,000 compounds; about 4,300 (8.3%) were called active. Cut-off read from the data, not from the text of the source: active = survival mostly below about 52% (no sharp cut-off); inactive = mostly above about 56%. Some of the results follow.

Results on 88 compounds are retold here after PubChem BioAssay AID463173 (ICCB-Longwood Screening Facility, Harvard Medical School, 2010).

For this experiment, the system named is DeltatarO mutant. The experiment is described as follows: growth inhibition of S. aureus wild type versus tarO mutant, primary screen, teichoic acid synthesis inhibitors, RN4220, OD600 (AID 463173). The settings on record: OD600, 18 h, active compounds read low, screened at 18.75 µg/mL (by protocol).
As to `CCOC(=O)c1ccc(N2C(=O)c3n[nH]c(C)c3C2c2ccc(OCC)cc2)cc1` (stereo not drawn), the survival was inactive: 52%.

In the case of `COc1ccc(-n2c(=O)c3ccccc3n(Cc3cccc(C)c3)c2=O)cc1`, the survival is inactive: 73%.

Consider `COc1cccc(Cn2c(CNS(=O)(=O)c3ccc(C(C)(C)C)cc3)nc3cccnc32)c1`, for which the survival is inactive: 130%.

On to `CCCN(c1ccc(C(C)C)cc1)S(=O)(=O)c1ccc2c(c1)oc(=O)n2CC(=O)OCC`, for which the survival is inactive: 73%.

Take `COc1ccccc1N1CCN(C(=O)c2cc(S(=O)(=O)N3CCC(C)CC3)cn2C)CC1`: the survival was active: 32%.

For `COc1ccc(-c2nc(CNC(=O)Nc3ccccc3)c(C)o2)cc1`, the survival was inactive: 70%.

For the compound `COc1ccc2c(C)c(CCC(=O)NCc3ccc(Cl)cc3)c(=O)oc2c1C`, the survival is inactive: 54%.

As to `CCN(Cc1ccccc1)C(=O)c1nn(-c2ccc(OC)cc2)c(=O)c2c1c1ccccc1n2C`, the survival was inactive: 68%.

On to `Cc1nn(-c2ccc(N3CCCC3)nn2)c(C)c1CCC(=O)N1CCN(c2ccccc2)CC1`, for which the survival was inactive: 71%.

Turning to `Cc1ccccc1-c1nn2c(=O)cc(CN3CCN(S(=O)(=O)c4ccc(Cl)cc4)CC3)nc2s1`, the survival is inactive: 105%.

In the case of `COC(=O)C(C#N)C(c1cccnc1)c1c(C)[nH][nH]c1=O` (stereo not drawn), the survival was inactive: 90%.

On to `N#C/C(=C(\O)c1ccco1)c1nc2ccccc2[nH]1`, for which the survival was inactive: 98%.

As to `Cc1ccccc1NC(=O)Cn1c(=O)n(Cc2ccccc2)c(=O)c2sc3ccccc3c21`, the survival is inactive: 65%.

Regarding `CCOc1ccc(C(=O)NCC(c2ccco2)S(=O)(=O)c2cccs2)cc1` (stereo not drawn), the survival was inactive: 95%.

Regarding `COc1cc(OC)cc(C(=O)Nc2ccc3nc(Nc4cccc(C(F)(F)F)c4)cc(C)c3c2)c1`, the survival is inactive: 70%.

For the compound `C#CCn1c(C2CC(=O)N(c3ccc(OCC)cc3)C2)nc2ccccc21` (stereo not drawn), the survival was inactive: 62%.

As for `O=C(NCc1ccc(F)cc1)c1cnc(N2CCCCC2)c2ccccc12`, the survival is inactive: 88%.

`CCCOc1ccc(CNC(=O)C2CCCN(c3nc4c(C)cc(C)cc4s3)C2)cc1` (stereo not drawn): the survival is inactive: 93%.

Regarding `c1ccc2c(c1)nc1n2CCC1`, the survival is inactive: 96%.

As for `COc1ccc(NC(=O)Cn2c(=O)n(-c3cccc(C(F)(F)F)c3)c(=O)c3sccc32)cc1`, the survival was inactive: 88%.

As to `Cc1ccc(C)c(N2C(=O)CS/C2=N\NC(=O)c2ccc(S(=O)(=O)N3CCCC3)cc2)c1`, the survival is inactive: 98%.

Consider `O=C(NCC(c1ccc(Cl)cc1)N1CCCCC1)c1ccccc1F` (stereo not drawn), for which the survival was inactive: 88%.

For the compound `COc1ccccc1N1CCN(C(=O)CSc2n[nH]c(-c3ccccc3Cl)n2)CC1`, the survival was inactive: 88%.

For the compound `CCOc1ccc(OCC)c(NC(=O)CCc2nc3cccnc3n2-c2ccccc2)c1`, the survival was inactive: 72%.

For the compound `CCC1CN(C(=O)Nc2ccc(Br)cc2F)c2ccccc2S1` (stereo not drawn), the survival was inactive: 90%.

Turning to `Cc1ccccc1NC(=O)[C@H](CSCc1ccccc1)N1Cc2ccccc2C1=O`, the survival was inactive: 64%.

As for `CCc1ccc(S(=O)(=O)Nc2ccc(-c3ccc(N4CCCC4)nn3)cc2)cc1`, the survival was inactive: 87%.

`COC(=O)C(NC(=O)CCc1c(C)nc2c(c(C)nn2-c2ccccc2)c1C)C(C)C` (stereo not drawn): the survival is inactive: 75%.

Turning to `Cc1ccc(Cl)cc1NC(c1ccc(F)cc1)c1nnc(-c2ccccc2)o1` (stereo not drawn), the survival was inactive: 86%.

`Cc1ccc(NC(=O)C(CC(C)C)NS(=O)(=O)c2ccc3c(c2)oc(=O)n3C)c(C)c1` (stereo not drawn): the survival is inactive: 86%.

As to `Cc1ccc2onc(CNC(=O)Nc3cc(F)ccc3F)c2c1`, the survival is inactive: 49%.

Regarding `Cc1ccc2c(c1)Cc1c(nc(-c3ccc(Cl)cc3)nc1SCC(=O)N1CCCCC1)O2`, the survival was inactive: 118%.

On to `Cc1ccn2c(Nc3ccc4c(c3)OCCO4)c(-c3cccs3)nc2c1`, for which the survival is inactive: 102%.

For `CCc1ccc(C2CC(=O)c3c([nH]c(C(=O)OCCOc4ccccc4)c3C)C2)cc1` (stereo not drawn), the survival is inactive: 77%.

Consider `O=C(CSc1nnc(-c2ccc(Cl)cc2)o1)Nc1ccc(F)cc1`, for which the survival was inactive: 69%.

For `COc1cccc2c1Oc1ncccc1N(c1ccc(C(=O)NCc3ccccc3Cl)s1)C2`, the survival is inactive: 91%.

Regarding `CC(=O)N1CCc2c(sc3c2c(=O)n(CCc2ccccc2)c(=O)n3CC(=O)Nc2ccc(C)c(F)c2)C1`, the survival was inactive: 70%.

Consider `Cc1cccc(NC(=O)c2ccc(F)c(S(=O)(=O)N3CCC4(CC3)OCCO4)c2)c1`, for which the survival is inactive: 72%.

As for `CC(C)NC(=O)C1CC(=O)N(c2ccc(Oc3ccccc3)cc2)C1` (stereo not drawn), the survival was inactive: 87%.

With `COc1ccc(NC(=O)Cn2c(=O)n(CCCC(=O)NCCc3ccc(C)cc3)c(=O)c3ccccc32)cc1Cl`, the survival was inactive: 97%.

On to `Cc1ccc(CCNC(=O)c2ccc3c(c2)N(Cc2ccccc2)C(=O)c2ccccc2S3=O)cc1` (stereo not drawn), for which the survival is inactive: 85%.

Turning to `COc1ccc(N2CCN(c3ncnc4onc(-c5ccc(F)cc5)c34)CC2)cc1`, the survival was inactive: 86%.

For the compound `COc1cc(OC)c(NC(=O)N2CCc3cc(OC)c(OC)cc3C2CC(=O)O)cc1Cl` (stereo not drawn), the survival is inactive: 89%.

With `CC(C)c1ccc(C2c3c(-c4ccccc4O)n[nH]c3C(=O)N2Cc2ccncc2)cc1` (stereo not drawn), the survival was inactive: 88%.

Take `CCCCOC(=O)CSc1nnc(-c2ccc(C)cc2)o1`: the survival is active: 12%.

Turning to `CC(C)Cn1c(=O)c2ccccc2n2c(CCC(=O)N3CCN(c4ccccc4)CC3)nnc12`, the survival was inactive: 104%.

As for `COc1ccc(C(=O)Nc2nnc(C)s2)cc1`, the survival was inactive: 77%.

Turning to `Cc1ccc(NC(=O)CCC(=O)N2Cc3ccccc3Oc3ncccc32)cc1F`, the survival was inactive: 70%.

For the compound `O=C(NCc1ccc(F)cc1)c1ccc2nc(N3CCCCC3)sc2c1`, the survival was inactive: 88%.

In the case of `CCOc1ccc(NC(=O)c2ccc3c(c2)CCN3S(=O)(=O)c2ccc(Cl)cc2)cc1`, the survival is inactive: 78%.

As to `Cc1cccc(Cn2c(=O)n(CCC(=O)NCCc3ccc(Cl)cc3)c(=O)c3sccc32)c1`, the survival was inactive: 73%.

For `CNC(=S)N(Cc1cc2cc(OC)ccc2[nH]c1=O)CC1CCCO1` (stereo not drawn), the survival was inactive: 105%.

With `O=C(NCC(c1ccc2c(c1)OCO2)N1CCOCC1)C(=O)Nc1cccc(Cl)c1` (stereo not drawn), the survival is inactive: 98%.

For the compound `Cc1cc(-c2ccc(C)c(S(=O)(=O)NCC3CCN(Cc4ccc(F)cc4)CC3)c2)on1`, the survival was inactive: 77%.

With `Fc1cccc(Cl)c1Cn1c(-c2cccs2)nc2ccccc21`, the survival was active: 21%.

Consider `O=C(NC1CCCCC1)NC1CCN(Cc2nnnn2Cc2ccco2)CC1`, for which the survival was inactive: 85%.

On to `COc1ccc(OC)c(CNC(=O)c2nn(C)c3c2CSc2ccccc2-3)c1`, for which the survival was inactive: 92%.

For `CCOc1ccc(CNC(=O)c2cc(=O)[nH]c3ccc(S(=O)(=O)N4CCCC4)cc23)cc1`, the survival was inactive: 94%.

`COc1ccc(C(=O)Nc2nc3c(s2)CCCC3)cc1Cl`: the survival is inactive: 53%.

Take `COc1ccc(Cl)cc1CNCCSc1nnnn1C`: the survival is inactive: 70%.

Regarding `Cn1c(=O)c2c(-c3ccccc3)n3c(c2n(C)c1=O)C(c1ccco1)Nc1ccccc1-3` (stereo not drawn), the survival is inactive: 77%.

For the compound `CCOc1cccc(NC(=O)CSc2ncc(-c3ccccc3)[nH]2)c1`, the survival is inactive: 49%.

With `CCCn1cc(S(=O)(=O)c2ccc(CC)cc2)c(=O)c2cc(F)c(N(CC)CC)cc21`, the survival was inactive: 81%.

Take `Cc1cccc(N2CCN(C(=O)c3ccc4c(c3)N(Cc3cccc(Cl)c3)C(=O)c3ccccc3S4=O)CC2C)c1` (stereo not drawn): the survival was inactive: 83%.

As to `CCOc1cccc2sc(N3CCN(C(=O)C4CC4)CC3)nc12`, the survival is inactive: 54%.

Take `Cc1cc(C)cc(NC(=O)CCCn2c3ccccc3c(=O)c3ccccc32)c1`: the survival is active: 42%.

On to `c1nnnn1C12CC3CC(CC(C3)C1)C2`, for which the survival is inactive: 119%.

With `CC(=O)c1ccc(N2CCN(C(=O)CCCCn3c(=O)[nH]c4ccccc4c3=O)CC2)cc1`, the survival is inactive: 107%.

Regarding `NC(=O)C1(N2CCCCC2)CCN(C(=O)Nc2ccc(F)cc2)CC1`, the survival is inactive: 98%.

On to `CCc1ccccc1NC(=O)CN1C(=O)c2ccccc2Sc2ncccc21`, for which the survival is inactive: 96%.

As for `CC1CCn2c(nc3cc(C(=O)NCc4ccccc4)ccc32)C1` (stereo not drawn), the survival is inactive: 83%.

`Cc1ccc(C)c(N2CCN(C(=O)C3CCCN(Cc4nc(-c5cccc(Cl)c5)oc4C)C3)CC2)c1` (stereo not drawn): the survival was inactive: 78%.

For `O=C(CNC(=O)c1ccccc1)OCc1cc(=O)n2ccsc2n1`, the survival was inactive: 77%.

Regarding `CC(=O)c1ccc(NC(=O)c2cc(S(=O)(=O)N3CCCCCC3)cn2C)cc1`, the survival was inactive: 78%.

On to `CC1CCCC(C)N1S(=O)(=O)c1ccccc1` (stereo not drawn), for which the survival is inactive: 79%.

For `Cc1ccc(NC(=O)CCCc2nnc3n(C)c(=O)c4sccc4n23)cc1F`, the survival is inactive: 72%.

With `COc1ccc(-c2nc3c(c(SCC(=O)Nc4ccccc4F)n2)Cc2cc(C)ccc2O3)cc1`, the survival was inactive: 98%.

On to `COc1ccc(-c2nnc(SCC(=O)NC3CCCC3)nc2-c2ccc(OC)c(OC)c2)cc1OC`, for which the survival is active: 47%.

Take `CCOc1ccc(N2CC(c3nc4ccccc4n3Cc3ccccc3F)CC2=O)cc1` (stereo not drawn): the survival was inactive: 103%.

Turning to `O=C(NCc1ccccc1)C1CCN(S(=O)(=O)c2ccc3c(c2)CCCN3C(=O)C2CCC2)CC1`, the survival is inactive: 78%.

In the case of `Cc1ccc(N2CC(NC(=O)c3ccc(S(=O)(=O)N4CCCC4)cc3)CC2=O)cc1C` (stereo not drawn), the survival was inactive: 83%.

With `Nc1nc2ccccc2n1C(=O)c1ccccc1`, the survival is inactive: 83%.

As for `CCn1cc(C(=O)NCCCN2CCCC(C)C2)c(=O)c2cc(S(=O)(=O)N(C)C3CCCCC3)ccc21` (stereo not drawn), the survival is inactive: 97%.

In the case of `Cc1cc(C)cc(-n2ccn(CC(=O)Nc3cc(C)ccc3C)c(=O)c2=O)c1`, the survival is inactive: 60%.

Consider `COc1ccc(CCNc2nc(-c3ccc(OC)c(OC)c3)cc(C(F)(F)F)n2)cc1OC`, for which the survival is active: 4%.

For `Cc1cccc(CS(=O)(=O)Cc2ccc(C(=O)NCCc3ccccc3)o2)c1`, the survival was inactive: 89%.

For the compound `Cc1ccc(-c2cn(-c3cccc(Cl)c3)c(S(=O)(=O)CC(=O)Nc3cccc(C)c3)n2)cc1`, the survival was inactive: 67%.

For `CCOC(=O)c1c(S(=O)(=O)N2CCCC(C(=O)NCc3cccc(OC)c3)C2)c(C)n(C)c1C` (stereo not drawn), the survival was inactive: 117%.
